The supplement of paper PMC6828730
Values joined by “and” are separate entries in the source; they are usually repeats but may differ in a detail not shown here. Equal entries are not always repeated. Structures can show the parent of a compound that is named as a salt. Some of the results follow. Repeats are few or missing, and single values can be far off.

Assays:
[1] = system: hiPSC-derived cardiomyocytes; assay: time to death of most cells in well after compound addition (days); higher = less cardiotoxic; settings: screen: 1; 10 µM
[2] = system: hiPSC-derived cardiomyocytes; assay: time to death of most cells in well after compound addition (days); higher = less cardiotoxic; extreme values may be limits of the assay; settings: 10 µM

Row | SMILES | time to death of most cells in well [1] | time to death of most cells in well ([2]; screen: 2) | time to death of most cells in well ([2]; screen: 3) | time to death of most cells in well ([2]; screen: 4)
1 | Nc1nc(N)c(N=O)c(OCC2CCCCC2)n1 | > 7 | > 7 | > 7 | > 7
2 | Cc1c(F)cc(C(=O)NC2CC2)cc1-c1ccc(C(=O)NCC(C)(C)C)cn1 | > 7 | 5 | > 7 | > 7
3 | NC(=O)Nc1sc(-c2ccc(F)cc2)cc1C(N)=O | 6 | > 7 | > 7 | > 7
4 | O=C(Nc1ccccc1C(=O)NC1CCCCNC1=O)c1cc2ccccc2s1 (stereo not drawn) | > 7 | > 7 | > 7 | > 7
5 | CNC(=O)c1cc(Oc2ccc(NC(=O)Nc3ccc(Cl)c(C(F)(F)F)c3)cc2)ccn1 [Sorafenib Tosylate] | > 7 | > 7 | > 7 | > 7
6 | Cc1ccc(NC(=O)c2ccc(CN3CCN(C)CC3)cc2)cc1Nc1nccc(-c2cccnc2)n1 [Imatinib Mesylate (STI571)] | > 7 | > 7 | > 7 | > 7
7 | CN1CCN(c2cccc(Nc3nc4c(-c5ccc(S(C)(=O)=O)cc5)cccn4n3)c2)CC1 | > 7 | > 7 | > 7 | > 7
8 | O=C(c1ccc(F)c(F)c1Nc1ccc(I)cc1F)N1CC(O)([C@@H]2CCCCN2)C1 [Cobimetinib (GDC-0973, RG7420)] | 3.5 | 3 | 5 | 6
9 | O=C(Nc1cccnc1)c1cc(-c2ccnc(F)c2)ccc1OCc1ccccc1 | > 7 | > 7 | > 7 | > 7
10 | COc1cc2ncnc(Nc3cccc(Cl)c3)c2cc1OC [AG-1478 (Tyrphostin AG-1478)] | > 7 | > 7 | > 7 | > 7
11 | COc1ncc(-c2ccc3nccc(-c4ccnnc4)c3c2)cc1NS(=O)(=O)c1ccc(F)cc1F | 3.5 | 1.5 | > 7 | > 7
12 | CCN1CCN(Cc2ccc(C(=O)Nc3ccc(C)c(Oc4ccc5c(c4)CC(=O)N5)c3)cc2C(F)(F)F)CC1 | 3 | 3 | > 7 | > 7
13 | CNC(=O)c1cc(Oc2ccc3nc(N[C@@H]4CCCC[C@H]4O)sc3c2)ccn1 | > 7 | > 7 | > 7 | > 7
14 | Clc1ccc(Nc2nnc(Cc3ccncc3)c3ccccc23)cc1 [Vatalanib (PTK787) 2HCl] | > 7 | > 7 | > 7 | > 7
15 | CCc1cnn2c(NCc3ccc[n+]([O-])c3)cc(N3CCCC[C@H]3CCO)nc12 | 5 | 4.5 | 2 | 6
16 | O=C(Nc1cccc(Nc2ncc(Br)c(NCCc3cnc[nH]3)n2)c1)N1CCCC1 | 5 | > 7 | > 7 | > 7
17 | Cn1cnc(=N)c2[nH]cnc21 [3-Methyladenine (3-MA)] | > 7 | > 7 | > 7 | > 7
18 | CN1CCN(c2nc(C3=C(c4c[nH]c5ccccc45)C(=O)NC3=O)c3ccccc3n2)CC1 [Sotrastaurin] | > 7 | 6 | > 7 | > 7
19 | O=C(NC1CCNCC1)c1n[nH]cc1NC(=O)c1c(Cl)cccc1Cl | 4.5 | 3.5 | 3 | > 7
20 | CNc1nc(-c2ccc3c(N)n[nH]c3c2)cc(N2C[C@@H](C(=O)NC3CCCCC3)CC[C@H]2C)n1 | > 7 | > 7 | > 7 | > 7
21 | Cc1cc(N2CCOCC2)cc2[nH]c(-c3c(NCC(O)c4cccc(Cl)c4)cc[nH]c3=O)nc12 (stereo not drawn) | 5 | 1.5 | > 7 | > 7

Row | SMILES | time to death of most cells in well [1] | time to death of most cells in well ([2]; screen: 2) | time to death of most cells in well ([2]; screen: 3) | time to death of most cells in well ([2]; screen: 4)
22 | N[C@@H]1CCCN(c2c(/C=C3\SC(=O)NC3=O)cccc2-c2ccccc2)C1 | 5 | > 7 | > 7 | > 7
23 | Cc1c[nH]c2nc(Nc3ccc(N4CCN(C)CC4)c(F)c3)nc(-c3cccc(CC#N)c3)c12 | > 7 | 3 | 4 | 3
24 | CN(C)CCOc1ccc(-c2nc(-c3ccncc3)c(-c3ccc4c(c3)CC/C4=N\O)[nH]2)cc1 | 0.5 | 0.5 | 0 | 0.5
25 | Cc1ccc(C(=O)Nc2cccc(C(F)(F)F)c2)cc1Nc1nc(-c2cccnc2)nc2c1cnn2C | 6 | > 7 | > 7 | > 7
26 | NC(=O)c1ccc(N(C(N)=O)c2c(F)cccc2F)nc1-c1ccc(F)cc1F | 2 | 2 | 3 | > 7
27 | Nc1cccc(S(=O)(=O)N2CCCN(S(=O)(=O)c3ccc4c(c3)OCCO4)CC2)c1 | > 7 | > 7 | > 7 | > 7
28 | CC(C)n1nc(-c2cc3cc(O)ccc3[nH]2)c2c(N)ncnc21 [Torkinib (PP242)] | > 7 | 3 | > 7 | > 7
29 | CCN(CC)CCCCNc1ncc2cc(-c3cc(OC)cc(OC)c3)c(NC(=O)NC(C)(C)C)nc2n1 | 4 | 2.5 | 6 | > 7
30 | C[C@@H]1CCN(C(=O)CC#N)C[C@@H]1N(C)c1ncnc2[nH]ccc12 | 3.5 and > 7 |  | > 7 | > 7
31 | Cc1csc(-c2nnc(Nc3ccc(Oc4ncccc4-c4ccnc(N)n4)cc3)c3ccccc23)c1 | > 7 | 5.5 | > 7 | > 7
32 | CN1CCC(Nc2nc(Nc3ccc(Oc4ccccc4)cc3)c3c(=O)[nH]cc(Br)c3n2)CC1 | > 7 | 0.5 | 3 | > 7
33 | CN1CC[C@H](c2c(O)cc(O)c3c(=O)cc(-c4ccccc4Cl)oc23)[C@H](O)C1 [Flavopiridol HCl] | 5.5 | 3 | 5.5 | 6.5
34 | CO[C@@H](C)Cn1c(=O)n(C)c2cnc3ccc(-c4cncc(C(C)(C)O)c4)cc3c21 | 6 | 4.5 | > 7 | > 7
35 | CNC(=O)c1cccc(-c2ccc3c(N4CCOC[C@@H]4C)nc(N4CCOC[C@@H]4C)nc3n2)c1 [Vistusertib (AZD2014)] | 6 | 3.5 | > 7 | > 7
36 | CC1=C(C(=O)Nc2cc3cn[nH]c3cc2F)C(c2ccc(C(F)(F)F)cc2)CC(=O)N1 (stereo not drawn) | > 7 | 6.5 | > 7 | > 7
37 | O=C(Nc1ccc(OC(F)(F)F)cc1)c1sccc1NCc1ccnc2ccccc12 | 1.5 | > 7 | > 7 | > 7
38 | CCn1c2ccccc2c2cc(Nc3ccnc(NCCCN4CCOCC4)n3)ccc21 | 1 | 1 | 2.5 | 1.5
39 | Cn1cc(-c2[nH]c3cc(NC(=O)[C@H](N)C4CCCCC4)cc4c3c2C=NNC4=O)cn1 | > 7 | > 7 | > 7 | 6.5
40 | Nc1ccc(-c2ccc3ncc4ccc(=O)n(-c5cccc(C(F)(F)F)c5)c4c3c2)cn1 [Torin 2] | 3.5 | 3 | 5 | 6
41 | CCCCCCCCCCCCCCCCCCOP(=O)([O-])OC1CC[N+](C)(C)CC1 [Perifosine (KRX-0401)] | > 7 | > 7 | > 7 | > 7
42 | Cn1cc(C2=C(c3cn(C4CCN(Cc5ccccn5)CC4)c4ccccc34)C(=O)NC2=O)c2ccccc21 | 5 | 5 | > 7 | > 7

Row | SMILES | time to death of most cells in well [1] | time to death of most cells in well ([2]; screen: 2) | time to death of most cells in well ([2]; screen: 3) | time to death of most cells in well ([2]; screen: 4)
43 | Nc1cccc(-c2cc3c(Oc4cccc(O)c4)ncnc3[nH]2)c1 | 4.5 | 3 | > 7 | > 7
44 | C[S+]([O-])c1ccc(-c2nc(-c3ccc(F)cc3)c(-c3ccncc3)[nH]2)cc1 (stereo not drawn) | > 7 | > 7 | > 7 | > 7
45 | C[C@@H]1COCCN1c1cc(C2([S@](C)(=N)=O)CC2)nc(-c2cc[nH]c3nccc2-3)n1 | > 7 | > 7 | > 7 | > 7
46 | FC(F)c1nc2ccccc2n1-c1nc(N2CCOCC2)nc(N2CCOCC2)n1 | > 7 | 3 | > 7 | > 7
47 | CN1CCN(CCOc2cc(OC3CCOCC3)c3c(Nc4c(Cl)ccc5c4OCO5)ncnc3c2)CC1 [Saracatinib (AZD0530)] | > 7 | > 7 | > 7 | > 7
48 | O=c1c(-c2ccc(O)cc2)coc2cc(O)cc(O)c12 [Genistein] | > 7 | > 7 | > 7 | > 7
49 | Oc1cccc(-c2nc(N3CCOCC3)c3oc4ncccc4c3n2)c1 | 3.5 | 4 | > 7 | 3
50 | CCCCCCCCCCCCc1ccc(S(=O)(=O)Nc2nncs2)cc1 | > 7 | > 7 | > 7 | > 7
51 | CC(C)N(CCC(=O)c1ccc2ccccc2c1)Cc1ccccc1 | 6.5 | 0.5 | > 7 | > 7
52 | COc1cc(N2CCC(N3CCN(C)CC3)CC2)ccc1Nc1ncnc(Nc2ccccc2S(=O)(=O)C(C)C)n1 | > 7 | > 7 | > 7 | > 7
53 | COc1cc2nccc(Oc3ccc(NC(=O)NC4CC4)c(Cl)c3)c2cc1C(N)=O [Lenvatinib (E7080)] | > 7 | > 7 | > 7 | > 7
54 | CCCCCCCCc1ccc(CCC(N)(CO)CO)cc1 [Fingolimod (FTY720) HCl] | 2 | 1 | 2 | 1
55 | C=CC(=O)Nc1cc(Nc2nccc(-c3cn(C)c4ccccc34)n2)c(OC)cc1N(C)CCN(C)C [Osimertinib (AZD9291)] | 2.5 | 3.5 | 3.5 | 3.5
56 | CN1CC[C@@H](c2c(O)cc(O)c3c(=O)cc(-c4ccccc4Cl)oc23)[C@@H]1CO | 1.5 | 1.5 | 5.5 | 4.5
57 | Cc1cc(Nc2cc(N3CCN(C)CC3)nc(Sc3ccc(NC(=O)C4CC4)cc3)n2)n[nH]1 [Tozasertib (VX-680, MK-0457)] | > 7 | > 7 | > 7 | > 7
58 | CN(C)Cc1cccc(N=C(c2ccccc2)c2c(O)[nH]c3cc(C(=O)N(C)C)ccc23)c1 | > 7 | > 7 | > 7 | > 7
59 | CNC(=O)c1ccc(C)c(-n2c(C)cc(OCc3ccc(F)cc3F)c(Br)c2=O)c1 | > 7 | 6 | 6.5 | > 7
60 | C[C@@H](NC(=O)c1ncnc(N)c1Cl)c1ncc(C(=O)Nc2cc(C(F)(F)F)c(Cl)cn2)s1 | > 7 | > 7 | > 7 | > 7
61 | C/C(O)=C(\C#N)C(=O)Nc1cc(Br)ccc1Br | 4.5 | > 7 | > 7 | > 7
